No constants are given. Whether binding was seen depends on the method and setting. Some results given as binding are weak or reduced against the parent protein; the word gives no strength.
How the values were obtained:
Experiment in all cases: two-hybrid; matrix-based yeast two-hybrid, GAL4-AD and GAL4-BD fusions (pDEST22, pDEST32), in duplicate, at least two reporter genes; medium lacking Leu, Trp and His with 1 mM 3-amino-1,2,4-triazole, growth scored after 4 days at 20°C
[1] = biological target: AGL16 (Arabidopsis thaliana) (UniProt A2RVQ5)
[2] = biological target: AGL17 (Arabidopsis thaliana) (UniProt Q38840)
[3] = biological target: AGL21 (Arabidopsis thaliana) (UniProt Q9SZJ6)
[4] = biological target: AGL6 (Arabidopsis thaliana) (UniProt P29386)
[5] = biological target: APETALA1 (Arabidopsis thaliana) (UniProt P35631)
[6] = biological target: CAULIFLOWER (Arabidopsis thaliana) (UniProt Q39081)
[7] = biological target: FLOWERING LOCUS C (Arabidopsis thaliana) (UniProt Q9S7Q7)
[8] = biological target: FRUITFUL (Arabidopsis thaliana) (UniProt Q38876)
[9] = biological target: MADS … FLOWERING 2 (Arabidopsis thaliana) (UniProt Q9FPN7)
[10] = biological target: SEP1 (Arabidopsis thaliana) (UniProt P29382)
[11] = biological target: SEP2 (Arabidopsis thaliana) (UniProt P29384)
[12] = biological target: SEP3 (Arabidopsis thaliana) (UniProt O22456)
[13] = biological target: SHORT … PHASE (SVP1) (Arabidopsis thaliana) (UniProt Q9FVC1)
[14] = biological target: SUPPRESSOR OF OVEREXPRESSION OF CO 1 (Arabidopsis thaliana) (UniProt O64645)
… (Arabidopsis thaliana) = … (Arabidopsis thaliana) (UniProt Q38836)
[15] = biological target: …OOF1 (Arabidopsis thaliana) (UniProt P29381)
[16] = biological target: …OOF2 (Arabidopsis thaliana) (UniProt P29385)

Chains of the proteins cited; added tags and fusions are not shown.
UniProt A2RVQ5: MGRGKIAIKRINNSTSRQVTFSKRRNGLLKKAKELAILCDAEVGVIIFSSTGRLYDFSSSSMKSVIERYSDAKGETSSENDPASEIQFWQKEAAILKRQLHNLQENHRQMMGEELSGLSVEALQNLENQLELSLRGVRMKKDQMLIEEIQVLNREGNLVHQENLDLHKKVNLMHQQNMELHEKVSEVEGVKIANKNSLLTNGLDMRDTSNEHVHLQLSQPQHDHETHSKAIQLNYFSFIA
UniProt Q38840: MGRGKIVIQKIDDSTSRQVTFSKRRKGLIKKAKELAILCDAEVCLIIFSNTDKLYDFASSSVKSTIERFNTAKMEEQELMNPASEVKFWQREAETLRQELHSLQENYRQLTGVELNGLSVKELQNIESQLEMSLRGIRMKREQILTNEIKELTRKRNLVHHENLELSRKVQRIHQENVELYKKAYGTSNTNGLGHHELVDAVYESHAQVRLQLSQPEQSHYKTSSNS
UniProt Q9SZJ6: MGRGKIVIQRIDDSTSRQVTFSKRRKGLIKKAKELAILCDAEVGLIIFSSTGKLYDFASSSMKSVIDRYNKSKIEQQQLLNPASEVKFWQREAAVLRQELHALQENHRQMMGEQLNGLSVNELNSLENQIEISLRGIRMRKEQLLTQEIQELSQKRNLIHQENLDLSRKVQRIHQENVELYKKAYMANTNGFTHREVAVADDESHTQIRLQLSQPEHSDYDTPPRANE
UniProt P29386: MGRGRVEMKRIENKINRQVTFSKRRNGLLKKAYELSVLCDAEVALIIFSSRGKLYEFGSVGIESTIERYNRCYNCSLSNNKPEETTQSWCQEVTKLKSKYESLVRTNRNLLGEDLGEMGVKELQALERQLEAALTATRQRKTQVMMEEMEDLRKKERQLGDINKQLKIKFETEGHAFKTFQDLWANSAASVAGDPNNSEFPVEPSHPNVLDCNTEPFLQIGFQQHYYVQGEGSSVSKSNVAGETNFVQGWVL
UniProt P35631: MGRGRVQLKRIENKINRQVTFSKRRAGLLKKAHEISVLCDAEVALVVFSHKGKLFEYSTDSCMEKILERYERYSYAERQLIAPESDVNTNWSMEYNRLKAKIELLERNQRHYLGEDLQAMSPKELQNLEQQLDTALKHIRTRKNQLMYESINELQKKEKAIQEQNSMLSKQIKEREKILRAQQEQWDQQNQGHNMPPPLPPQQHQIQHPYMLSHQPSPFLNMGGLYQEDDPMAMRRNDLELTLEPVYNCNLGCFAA
UniProt Q39081: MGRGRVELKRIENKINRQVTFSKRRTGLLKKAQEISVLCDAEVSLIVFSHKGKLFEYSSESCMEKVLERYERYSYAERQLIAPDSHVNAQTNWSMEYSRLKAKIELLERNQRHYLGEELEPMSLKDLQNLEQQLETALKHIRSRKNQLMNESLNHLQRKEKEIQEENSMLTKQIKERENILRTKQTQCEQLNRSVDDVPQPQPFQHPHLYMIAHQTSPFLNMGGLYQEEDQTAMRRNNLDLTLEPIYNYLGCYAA
UniProt Q9S7Q7: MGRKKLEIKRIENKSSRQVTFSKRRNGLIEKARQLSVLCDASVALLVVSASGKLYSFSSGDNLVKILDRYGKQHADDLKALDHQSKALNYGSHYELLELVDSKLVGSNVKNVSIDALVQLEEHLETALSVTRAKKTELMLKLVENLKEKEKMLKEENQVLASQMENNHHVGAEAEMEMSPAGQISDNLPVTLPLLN
UniProt Q38876: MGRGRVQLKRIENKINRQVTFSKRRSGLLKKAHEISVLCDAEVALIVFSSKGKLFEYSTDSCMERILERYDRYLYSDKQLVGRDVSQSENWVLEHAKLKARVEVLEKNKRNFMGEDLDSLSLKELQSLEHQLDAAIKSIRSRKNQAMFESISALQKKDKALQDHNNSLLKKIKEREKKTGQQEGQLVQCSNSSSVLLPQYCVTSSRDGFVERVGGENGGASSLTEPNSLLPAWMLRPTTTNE
UniProt Q9FPN7: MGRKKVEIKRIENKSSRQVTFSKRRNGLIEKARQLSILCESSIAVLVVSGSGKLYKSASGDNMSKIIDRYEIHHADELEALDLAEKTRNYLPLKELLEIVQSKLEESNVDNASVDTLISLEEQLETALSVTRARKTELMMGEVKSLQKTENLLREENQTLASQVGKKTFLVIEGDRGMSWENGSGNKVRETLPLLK
UniProt P29382: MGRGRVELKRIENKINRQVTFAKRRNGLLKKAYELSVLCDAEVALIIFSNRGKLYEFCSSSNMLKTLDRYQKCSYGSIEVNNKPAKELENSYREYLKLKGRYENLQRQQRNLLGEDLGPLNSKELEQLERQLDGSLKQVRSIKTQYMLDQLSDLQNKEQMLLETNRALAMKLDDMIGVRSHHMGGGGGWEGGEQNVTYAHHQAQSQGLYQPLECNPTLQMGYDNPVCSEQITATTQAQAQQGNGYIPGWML
UniProt P29384: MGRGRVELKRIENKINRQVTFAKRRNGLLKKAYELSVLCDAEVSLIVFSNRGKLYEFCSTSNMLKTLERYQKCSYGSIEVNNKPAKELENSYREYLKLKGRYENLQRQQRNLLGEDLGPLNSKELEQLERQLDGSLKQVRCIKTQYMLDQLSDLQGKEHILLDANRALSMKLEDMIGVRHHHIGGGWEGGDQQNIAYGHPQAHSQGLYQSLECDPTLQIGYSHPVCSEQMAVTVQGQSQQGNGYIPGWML
UniProt O22456: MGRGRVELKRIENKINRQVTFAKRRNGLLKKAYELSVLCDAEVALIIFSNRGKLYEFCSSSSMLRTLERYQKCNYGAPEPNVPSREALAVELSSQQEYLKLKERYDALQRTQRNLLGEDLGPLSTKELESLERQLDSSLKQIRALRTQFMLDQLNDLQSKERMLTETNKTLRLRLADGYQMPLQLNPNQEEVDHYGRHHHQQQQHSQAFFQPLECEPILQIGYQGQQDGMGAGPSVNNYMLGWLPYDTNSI
UniProt O64645: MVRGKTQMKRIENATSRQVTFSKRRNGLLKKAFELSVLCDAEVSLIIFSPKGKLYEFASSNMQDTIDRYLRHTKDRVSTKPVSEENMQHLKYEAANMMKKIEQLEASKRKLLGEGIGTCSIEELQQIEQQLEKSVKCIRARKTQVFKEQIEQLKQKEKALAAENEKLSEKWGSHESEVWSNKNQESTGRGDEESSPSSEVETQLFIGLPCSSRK
UniProt Q38836: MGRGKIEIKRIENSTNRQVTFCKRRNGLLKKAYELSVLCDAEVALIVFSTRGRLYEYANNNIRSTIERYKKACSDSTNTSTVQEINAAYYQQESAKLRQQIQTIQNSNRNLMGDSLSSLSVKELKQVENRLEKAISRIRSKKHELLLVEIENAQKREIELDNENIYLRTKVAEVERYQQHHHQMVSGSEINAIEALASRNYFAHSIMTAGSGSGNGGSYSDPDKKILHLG
UniProt P29381: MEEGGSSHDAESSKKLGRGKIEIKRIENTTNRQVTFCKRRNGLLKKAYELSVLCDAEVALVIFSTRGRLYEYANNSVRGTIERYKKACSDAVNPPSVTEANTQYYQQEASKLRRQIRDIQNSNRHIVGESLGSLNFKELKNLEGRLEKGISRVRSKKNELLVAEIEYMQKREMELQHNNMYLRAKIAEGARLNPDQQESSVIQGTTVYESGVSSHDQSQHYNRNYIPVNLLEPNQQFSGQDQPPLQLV
UniProt P29385: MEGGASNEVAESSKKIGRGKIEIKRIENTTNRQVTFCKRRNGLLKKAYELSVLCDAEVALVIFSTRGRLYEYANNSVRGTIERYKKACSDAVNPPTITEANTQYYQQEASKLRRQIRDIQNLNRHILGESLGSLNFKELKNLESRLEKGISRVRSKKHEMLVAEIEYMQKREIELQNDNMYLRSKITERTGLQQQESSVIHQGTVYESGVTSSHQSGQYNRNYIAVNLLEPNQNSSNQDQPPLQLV

Binder	binding [1]	binding [2]	binding [3]	binding [4]	binding [5]	binding [6]	binding [7]	binding [8]	binding [9]	binding [10]	binding [11]	binding [12]	binding [13]	binding [14]	binding (… (Arabidopsis thaliana))	binding [15]	binding [16]
AGL24 R61S (protein, UniProt O82794 1-220) MAREKIRIKKIDNITARQVTFSKRRRGIFKKADELSVLCDADVALIIFSATGKLFEFSSSSMRDILGRYSLHASNINKLMDPPSTHLRLENCNLSRLSKEVEDKTKQLRKLRGEDLDGLNLEELQRLEKLLESGLSRVSEKKGECVMSQIFSLEKRGSELVDENKRLRDKLETLERAKLTTLKEALETESVTTNVSSYDSGTPLEDDSDTSLKLGLPSWE	binds	no binding	binds	no binding	binds	no binding	no binding	binds	binds	binds	binds	binds	no binding	binds	binds	binds	binds
AGAMOUS-LIKE24 (protein, UniProt O82794 1-220) MAREKIRIKKIDNITARQVTFSKRRRGIFKKADELSVLCDADVALIIFSATGKLFEFSSSRMRDILGRYSLHASNINKLMDPPSTHLRLENCNLSRLSKEVEDKTKQLRKLRGEDLDGLNLEELQRLEKLLESGLSRVSEKKGECVMSQIFSLEKRGSELVDENKRLRDKLETLERAKLTTLKEALETESVTTNVSSYDSGTPLEDDSDTSLKLGLPSWE	binds	no binding	binds	binds	binds	no binding	no binding	binds	no binding	binds	no binding	binds	no binding	binds	no binding	binds	no binding

Source: PMC2991254
